# Reference: the supplement of paper PMC8728848
# The list shows a part of the results.
# B1: HBHA-Rv (Mycobacterium tuberculosum), P0A5P6 (protein)
# chain: MAENSNIDDIKAPLLAALGAADLALATVNELITNLRERAEETRTDTRSRVEESRARLTKLQEDLPEQLTELREKFTAEELRKAAEGYLEAATSRYNELVERGEAALERLRSQQSFEEVSARAEGYVDQAVELTQEALGTVASQTRAVGERAAKLVGIELPKKAAPAKKAAPAKKAAPAKKAAAKKAPAKKAAAKKVTQK
# What was measured:
# Assay in all cases: glycan array binding signal (z-score within array); higher = stronger binding
# Conditions in all cases: glycan notation: IUPAC condensed, linker removed
# [1] = target: Gal(b1-3)GlcNAc(b1-6)GalNAc
# Method in brief: (§1)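 Arrays were curated from the Consortium for Functional Glycomics database, 3228 in total, and kept only where the protein sequence was available. Binding is expressed as a within-array Z-score. This score was averaged across arrays of the same protein sequence at different concentrations or buffers and across linkers, and negative values can be read as non-binding.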
# [2] = target: Gal(b1-3)GlcNAc(b1-6)[Gal(b1-3)]GalNAc
# Method in brief: as §1
# Gal(b1-3)GlcNAc6S = target: Gal(b1-3)GlcNAc6S
# Method in brief: as §1
# [3] = target: Gal(b1-3)[Fuc(a1-4)]GlcNAc
# Method in brief: as §1
# [4] = target: Gal(b1-3)[Fuc(a1-4)]GlcNAc(b1-2)Man
# Method in brief: as §1
# [5] = target: Gal(b1-3)[Fuc(a1-4)]GlcNAc(b1-2)Man(a1-3)[Gal(b1-3)[Fuc(a1-4)]GlcNAc(b1-2)Man(a1-6)]Man(b1-4)GlcNAc(b1-4)[Fuc(a1-6)]GlcNAc
# Method in brief: as §1
# [6] = target: Gal(b1-3)[Fuc(a1-4)]GlcNAc(b1-3)Gal(b1-3)[Fuc(a1-4)]GlcNAc
# Method in brief: as §1
# [7] = target: Gal(b1-3)[Fuc(a1-4)]GlcNAc(b1-3)Gal(b1-4)[Fuc(a1-3)]GlcNAc
# Method in brief: as §1
# [8] = target: Gal(b1-3)[Fuc(a1-4)]GlcNAc(b1-6)GalNAc
# Method in brief: as §1
# [9] = target: Gal(b1-3)[GlcNAc(b1-6)]GalNAc
# Method in brief: as §1
# [10] = target: Gal(b1-3)[Neu5Ac(a2-6)]GalNAc
# Method in brief: as §1
# [11] = target: Gal(b1-3)[Neu5Ac(a2-6)]GlcNAc(b1-4)Gal(b1-4)Glc
# Method in brief: as §1
# [12] = target: Gal(b1-3)[Neu5Ac(b2-6)]GalNAc
# Method in brief: as §1
# Gal(b1-4)Gal = target: Gal(b1-4)Gal
# Method in brief: as §1
# [13] = target: Gal(b1-4)GalNAc(a1-3)[Fuc(a1-2)]Gal(b1-4)GlcNAc
# Method in brief: as §1
# [14] = target: Gal(b1-4)GalNAc(b1-3)[Fuc(a1-2)]Gal(b1-4)GlcNAc
# Method in brief: as §1
# Gal(b1-4)Glc = target: Gal(b1-4)Glc
# Method in brief: as §1
# Gal(b1-4)Glc6S = target: Gal(b1-4)Glc6S
# Method in brief: as §1
# Gal(b1-4)GlcNAc = target: Gal(b1-4)GlcNAc
# Method in brief: as §1
# [15] = target: Gal(b1-4)GlcNAc(a1-6)Gal(b1-4)GlcNAc
# Method in brief: as §1
# Gal(b1-4)GlcNAc(b1-2)Man = target: Gal(b1-4)GlcNAc(b1-2)Man
# Method in brief: as §1
# [16] = target: Gal(b1-4)GlcNAc(b1-2)Man(a1-3)Man(b1-4)GlcNAc(b1-4)GlcNAc
# Method in brief: as §1
# [17] = target: Gal(b1-4)GlcNAc(b1-2)Man(a1-3)[Gal(b1-4)GlcNAc(b1-2)Man(a1-6)]Man(b1-4)GlcNAc(b1-4)GlcNAc
# Method in brief: as §1
# [18] = target: Gal(b1-4)GlcNAc(b1-2)Man(a1-3)[Gal(b1-4)GlcNAc(b1-2)Man(a1-6)]Man(b1-4)GlcNAc(b1-4)[Fuc(a1-6)]GlcNAc
# Method in brief: as §1
# [19] = target: Gal(b1-4)GlcNAc(b1-2)Man(a1-3)[Gal(b1-4)GlcNAc(b1-2)Man(a1-6)][Gal(b1-4)GlcNAc(b1-4)]Man(b1-4)GlcNAc(b1-4)[Fuc(a1-6)]GlcNAc
# Method in brief: as §1
# [20] = target: Gal(b1-4)GlcNAc(b1-2)Man(a1-3)[Gal(b1-4)GlcNAc(b1-2)Man(a1-6)][GlcNAc(b1-4)]Man(b1-4)GlcNAc(b1-4)[Fuc(a1-6)]GlcNAc
# Method in brief: as §1
# [21] = target: Gal(b1-4)GlcNAc(b1-2)Man(a1-3)[GlcNAc(b1-2)Man(a1-6)]Man(b1-4)GlcNAc(b1-4)GlcNAc
# Method in brief: as §1
# [22] = target: Gal(b1-4)GlcNAc(b1-2)Man(a1-3)[GlcNAc(b1-4)][Gal(b1-4)GlcNAc(b1-2)Man(a1-6)]Man(b1-4)GlcNAc(b1-4)GlcNAc
# Method in brief: as §1
# [23] = target: Gal(b1-4)GlcNAc(b1-2)Man(a1-3)[Man(a1-6)]Man(b1-4)GlcNAc(b1-4)GlcNAc
# Method in brief: as §1
# [24] = target: Gal(b1-4)GlcNAc(b1-2)Man(a1-6)Man(b1-4)GlcNAc(b1-4)GlcNAc
# Method in brief: as §1
# [25] = target: Gal(b1-4)GlcNAc(b1-2)Man(a1-6)[GlcNAc(b1-2)Man(a1-3)]Man(b1-4)GlcNAc(b1-4)GlcNAc
# Method in brief: as §1
# [26] = target: Gal(b1-4)GlcNAc(b1-2)Man(a1-6)[Man(a1-3)]Man(b1-4)GlcNAc(b1-4)GlcNAc
# Method in brief: as §1
# [27] = target: Gal(b1-4)GlcNAc(b1-2)[Gal(b1-4)GlcNAc(b1-4)]Man(a1-3)[Gal(b1-4)GlcNAc(b1-2)Man(a1-6)]Man(b1-4)GlcNAc(b1-4)GlcNAc
# Method in brief: as §1
# [28] = target: Gal(b1-4)GlcNAc(b1-2)[Gal(b1-4)GlcNAc(b1-4)]Man(a1-3)[Gal(b1-4)GlcNAc(b1-2)[Gal(b1-4)GlcNAc(b1-6)]Man(a1-6)]Man(b1-4)GlcNAc(b1-4)GlcNAc
# Method in brief: as §1
# [29] = target: Gal(b1-4)GlcNAc(b1-2)[Gal(b1-4)GlcNAc(b1-4)]Man(a1-3)[GlcNAc(b1-4)][Gal(b1-4)GlcNAc(b1-2)Man(a1-6)]Man(b1-4)GlcNAc(b1-4)GlcNAc
# Method in brief: as §1
# [30] = target: Gal(b1-4)GlcNAc(b1-2)[Gal(b1-4)GlcNAc(b1-4)]Man(a1-3)[GlcNAc(b1-4)][Gal(b1-4)GlcNAc(b1-2)[Gal(b1-4)GlcNAc(b1-6)]Man(a1-6)]Man(b1-4)GlcNAc(b1-4)GlcNAc
# Method in brief: as §1
# [31] = target: Gal(b1-4)GlcNAc(b1-2)[Gal(b1-4)GlcNAc(b1-6)]Man(a1-6)[Gal(b1-4)GlcNAc(b1-2)Man(a1-3)]Man(b1-4)GlcNAc(b1-4)GlcNAc
# Method in brief: as §1
# [32] = target: Gal(b1-4)GlcNAc(b1-2)[Gal(b1-4)GlcNAc(b1-6)]Man(a1-6)[Gal(b1-4)GlcNAc(b1-2)Man(a1-3)]Man(b1-4)GlcNAc(b1-4)[Fuc(a1-6)]GlcNAc
# Method in brief: as §1
# [33] = target: Gal(b1-4)GlcNAc(b1-2)[Gal(b1-4)GlcNAc(b1-6)]Man(a1-6)[GlcNAc(b1-4)][Gal(b1-4)GlcNAc(b1-2)Man(a1-3)]Man(b1-4)GlcNAc(b1-4)GlcNAc
# Method in brief: as §1
# [34] = target: Gal(b1-4)GlcNAc(b1-2)[Gal(b1-4)GlcNAc(b1-6)]Man(a1-6)[GlcNAc(b1-4)][Gal(b1-4)GlcNAc(b1-2)[Gal(b1-4)GlcNAc(b1-4)]Man(a1-3)]Man(b1-4)GlcNAc(b1-4)[Fuc(a1-6)]GlcNAc
# Method in brief: as §1
# [35] = target: Gal(b1-4)GlcNAc(b1-3)Gal(b1-3)GalNAc
# Method in brief: as §1
# [36] = target: Gal(b1-4)GlcNAc(b1-3)Gal(b1-3)GlcNAc
# Method in brief: as §1
# [37] = target: Gal(b1-4)GlcNAc(b1-3)Gal(b1-4)Glc
# Method in brief: as §1
# [38] = target: Gal(b1-4)GlcNAc(b1-3)Gal(b1-4)GlcNAc
# Method in brief: as §1
# [39] = target: Gal(b1-4)GlcNAc(b1-3)Gal(b1-4)GlcNAc(b1-2)Man(a1-3)[Gal(b1-4)GlcNAc(b1-3)Gal(b1-4)GlcNAc(b1-2)Man(a1-6)]Man(b1-4)GlcNAc(b1-4)GlcNAc
# Method in brief: as §1
binder,measurement,setting,value
B1,glycan array binding signal (z-score),[1],-0.248
same,glycan array binding signal (z-score),[2],-0.256
same,glycan array binding signal (z-score),Gal(b1-3)GlcNAc6S,-0.234
same,glycan array binding signal (z-score),[3],0.313
same,glycan array binding signal (z-score),[4],1.28
same,glycan array binding signal (z-score),[5],-0.245
same,glycan array binding signal (z-score),[6],-0.12
same,glycan array binding signal (z-score),[7],-0.166
same,glycan array binding signal (z-score),[8],-0.297
same,glycan array binding signal (z-score),[9],-0.131
same,glycan array binding signal (z-score),[10],0.383
same,glycan array binding signal (z-score),[11],0.417
same,glycan array binding signal (z-score),[12],0.054
same,glycan array binding signal (z-score),Gal(b1-4)Gal,0.015
same,glycan array binding signal (z-score),[13],-0.277
same,glycan array binding signal (z-score),[14],-0.175
same,glycan array binding signal (z-score),Gal(b1-4)Glc,0.046
same,glycan array binding signal (z-score),Gal(b1-4)Glc6S,0.036
same,glycan array binding signal (z-score),Gal(b1-4)GlcNAc,-0.196
same,glycan array binding signal (z-score),[15],-0.438
same,glycan array binding signal (z-score),Gal(b1-4)GlcNAc(b1-2)Man,1.37
same,glycan array binding signal (z-score),[16],-0.235
same,glycan array binding signal (z-score),[17],0.061
same,glycan array binding signal (z-score),[18],-0.196
same,glycan array binding signal (z-score),[19],-0.434
same,glycan array binding signal (z-score),[20],-0.352
same,glycan array binding signal (z-score),[21],-0.447
same,glycan array binding signal (z-score),[22],-0.309
same,glycan array binding signal (z-score),[23],0.103
same,glycan array binding signal (z-score),[24],-0.316
same,glycan array binding signal (z-score),[25],-0.224
same,glycan array binding signal (z-score),[26],-0.334
same,glycan array binding signal (z-score),[27],-0.439
same,glycan array binding signal (z-score),[28],-0.315
same,glycan array binding signal (z-score),[29],-0.349
same,glycan array binding signal (z-score),[30],-0.455
same,glycan array binding signal (z-score),[31],-0.359
same,glycan array binding signal (z-score),[32],-0.269
same,glycan array binding signal (z-score),[33],-0.375
same,glycan array binding signal (z-score),[34],-0.428
same,glycan array binding signal (z-score),[35],-0.357
same,glycan array binding signal (z-score),[36],-0.107
same,glycan array binding signal (z-score),[37],0.371
same,glycan array binding signal (z-score),[38],-0.22
same,glycan array binding signal (z-score),[39],1.21
